# Laboratory results as given in PubChem BioAssay AID624417 (National Center for Advancing Translational Sciences (NCATS), 2012).
# Among all 410,000 compounds or so, about 6,400 (1.6%) were called active. Inconclusive means that the source gave no clear call. Such entries were picked first, then a sample of the others. The call rests on the fitted dose curve; in most records, active means well fitted inhibition curve with a large enough effect; inconclusive means small, poorly fitted or top-dose-only effect; inactive means no such curve, though single readings can be large or run the other way. No potency is given beside an inconclusive call; the fits are too rough.
# Target: Glucagon-like peptide 1 receptor (Homo sapiens) (UniProt P43220)
# Test: qHTS of GLP-1 Receptor Inverse Agonists (Inhibition Mode); further: nearly all actives have a fitted effect of over 55% in size
# Conditions: HEK293 GLP-1R CRE-luciferase, luminescence, 24 h, GLP-1R form is constitutively active; series mostly up to 38.3 µM
# Outline: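 Assay principle: reduced luminescence from a cAMP-responsive reporter in HEK293 cells co-expressing a constitutively active GLP-1R. Conditions: 24 hr compound incubation, 37 deg C, 5% CO2.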
# Potency means the concentration at half of the fitted maximal effect; tags describe the fitted curve by direction and shape.
# UniProt P43220, sequence (P43220 whole entry, looked up): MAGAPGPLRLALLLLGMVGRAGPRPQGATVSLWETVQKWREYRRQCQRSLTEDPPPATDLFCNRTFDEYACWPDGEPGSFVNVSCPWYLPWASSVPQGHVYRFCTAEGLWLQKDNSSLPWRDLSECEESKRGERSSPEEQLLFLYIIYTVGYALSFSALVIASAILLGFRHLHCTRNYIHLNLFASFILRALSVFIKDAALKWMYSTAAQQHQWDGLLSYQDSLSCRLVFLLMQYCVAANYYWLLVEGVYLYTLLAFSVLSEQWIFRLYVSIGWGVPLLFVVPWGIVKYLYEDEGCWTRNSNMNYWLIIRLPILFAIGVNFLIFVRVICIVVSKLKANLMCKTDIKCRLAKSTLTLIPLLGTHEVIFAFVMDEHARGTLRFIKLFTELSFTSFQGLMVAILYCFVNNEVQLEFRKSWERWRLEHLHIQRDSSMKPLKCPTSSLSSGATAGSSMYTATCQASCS
row,Compound,Potency
1,COC(=O)C1=C(C(=O)OC)[C@]2([C@H]3CC=CCN[C@@H](Cc4ccccc4)C(=O)N3Cc3ccccc3)C=C[C@H]1O2,"inconclusive [inhibitor, partial curve, poor fit]"
2,Cc1ccc(-c2[nH]ncc2/C=N/n2c(COc3ccccc3C)nc3ccccc3c2=O)cc1,"inconclusive [inhibitor, single point]"
3,Cc1nc(-c2ccccc2)nn1-c1ccc([N+](=O)[O-])cc1,inactive
4,CC(C)(C)c1ccc(C(=O)N2CCC2(C)C(=O)NCc2ccc3c(c2)OCO3)cc1 (stereo not drawn),"inconclusive [inhibitor, single point]"
5,CCOc1ccc(N(CC(=O)Nc2ccc(C)c(Cl)c2)S(C)(=O)=O)cc1,"inconclusive [inhibitor, single point]"
6,CC1Sc2ccc(S(=O)(=O)N3CCC(C(=O)NCc4ccccc4)CC3)cc2NC1=O (stereo not drawn),"inconclusive [inhibitor, single point]"
7,Cn1c(CNc2nc(-c3ccccc3)cs2)nnc1SCC(=O)c1ccccc1,"inconclusive [inhibitor, single point]"
8,CN(C)CC1CCCCC1OC(=O)c1ccc(S(=O)(=O)N(C)c2ccccc2)cc1 (stereo not drawn),"inconclusive [inhibitor, partial curve]"
9,Cc1cccc(NC(=O)C2CC(O)CN2C(=O)OCc2ccccc2)c1 (stereo not drawn),"inconclusive [inhibitor, single point]"
10,CCc1ccc(CN(C)CC(=O)Nc2ccccc2[N+](=O)[O-])cc1,"inconclusive [inhibitor, partial curve, poor fit]"
11,COc1ccc(NC(=O)Cn2ncc3c([nH]c4ccccc43)c2=O)cc1Cl,inactive
12,Cc1ccc(C)c(S(=O)(=O)N2CCN(C(=O)CSc3ccccc3)CC2)c1,"inconclusive [inhibitor, partial curve]"
13,Oc1ccccc1C(=S)N1CCN(C(=S)c2ccccc2O)CC1,"inconclusive [inhibitor, partial curve, poor fit]"
14,COc1cc2nc(N3CCNCC3)nc(N)c2cc1OC,inactive
15,Cc1onc(-c2c(F)cccc2Cl)c1C(=O)NC1CCCCCC1,"inconclusive [inhibitor, partial curve, poor fit]"
16,c1ccc(-c2[nH]ncc2CN2CCc3ccccc3C2)cc1,"inconclusive [inhibitor, single point]"
17,O=C(CN1CCN(c2ccc(O)cc2)CC1)NC(c1ccccc1)c1ccccc1,"inconclusive [inhibitor, full curve, poor fit]"
18,Cc1ccc(NS(=O)(=O)c2ccc(C(=O)N3CCCCCCC3)cc2)cc1,"inconclusive [inhibitor, single point]"
19,COc1ccccc1CCc1nnc(CCC(=O)NCCC2CCCCO2)o1 (stereo not drawn),inactive
20,O=[N+]([O-])c1ccc(S(=O)(=O)Nc2nc3ccccc3nc2Nc2ccccc2)cc1,inactive
21,O=C(Cc1ccc(-c2ccccc2)cc1)NNC(=S)NCc1ccco1,"inconclusive [inhibitor, partial curve, poor fit]"

row,Compound,Potency
1,CSc1ccccc1NC(=O)CN(C)C(C)C(=O)Nc1ccc(C#N)cc1 (stereo not drawn),"inconclusive [inhibitor, single point]"
2,Cc1ccc(-c2ccc(CO)o2)cc1N,"inconclusive [inhibitor, single point]"
3,O=C(NC(c1ccccc1)c1ccsc1)C1CCN(Cc2ccc(Cl)c(Cl)c2)CC1 (stereo not drawn),inactive
4,O=C(Cn1nc(C(F)(F)F)c2c1CCCC2)Nc1ccc(Cl)cc1,"inconclusive [inhibitor, single point]"
5,CCOC(=O)CC1C(=O)NCCN1c1nc2ccc(C)cn2c(=O)c1/C=C1\SC(=S)N(CC(C)C)C1=O (stereo not drawn),inactive
6,Cc1cc(=O)n(Cc2cccc(Br)c2)c2c1c(C)nn2-c1ccccc1,inactive
7,O=C(NC(=S)Nc1ccc(C(F)(F)F)cc1)c1csnn1,inactive
8,COc1ccc(Nc2nc(N)c([N+](=O)[O-])c(NC3CCCCC3)n2)cc1,"inconclusive [inhibitor, partial curve, poor fit]"
9,O=C1NC(Cc2c[nH]c3ccccc23)C(=O)N1CCOc1ccc(F)cc1 (stereo not drawn),"inconclusive [inhibitor, single point]"
10,COc1ccc(CN2C[C@@H](CO)O[C@@H](n3cnc4c(N5CCN(c6ccccc6)CC5)ncnc43)C2)cc1,"inconclusive [inhibitor, partial curve]"
11,Cc1c(Cl)ccc2sc(NC(=O)C3CC3)nc12,"inconclusive [inhibitor, single point]"
12,CC1CC(C)CN(c2ncc3c(n2)CC(c2ccccc2)CC3=O)C1 (stereo not drawn),"inconclusive [inhibitor, full curve, poor fit]"
13,Cc1ccc(-c2csc(NC(=O)/C=C/c3cccs3)n2)cc1C,"inconclusive [inhibitor, partial curve, poor fit]"
14,Cc1cccc(-c2n[nH]c(=S)n2/N=C/c2ccco2)c1,inactive
15,COc1ccc(S(=O)(=O)N2CCN(Cc3nc4ccc(C)cc4o3)CC2)cc1OC,inactive
16,Clc1nnc(N/N=C/c2ccccc2)c2ccccc12,"inconclusive [inhibitor, single point]"
17,O=S(=O)(c1ccccc1)N1CCC(Oc2ccc(-n3cnnn3)cc2)CC1,"inconclusive [inhibitor, single point]"
18,Cc1cccc(CNC(=O)Cc2csc3ccccc23)c1,"inconclusive [inhibitor, single point]"
19,COc1ccc(CNC(=O)C2Cc3c(-c4ccccc4Oc4ccccc4)ccnc3O2)cc1OC (stereo not drawn),"inconclusive [inhibitor, single point]"
20,CCOc1cc2sc(N3CCC(C(=O)Nc4ccc(C(C)C)cc4)CC3)nc2cc1Br,inactive
21,CCn1c(SCc2ccc(OC)c(F)c2)nc2ccccc2c1=O,"inconclusive [inhibitor, single point]"

row,Compound,Potency
1,CON(C)C(=O)CC(CN(Cc1ccccc1)C(=O)OC(C)(C)C)c1ccc(Cl)cc1 (stereo not drawn),"inconclusive [inhibitor, single point]"
2,CC(=O)N1[C@H](C)C=C[C@]1(Cc1ccccc1)C(=O)NCc1cc(F)cc(C(F)(F)F)c1,"inconclusive [inhibitor, single point]"
3,CCOc1ccc(NC(=O)CN(c2ccccc2OCC)S(=O)(=O)c2ccccc2)cc1,"inconclusive [inhibitor, single point]"
4,CCCCCCCN1C(Nc2ccccc2)=NC[C@@H]1Cc1ccccc1,"inconclusive [inhibitor, single point]"
5,CC(C)C[C@@]12C(=O)N(c3cccc(Br)c3)C(=O)N1[C@H](c1ccc(F)cc1)[C@@H]1C(=O)N(C3CCCCC3)C(=O)[C@@H]12,"inconclusive [inhibitor, partial curve]"
6,COC(=O)C1=C(C(=O)OC)SC(=C2C(=S)C(C)(C)N(C(=O)C3CC3)c3ccccc32)S1,"inconclusive [inhibitor, partial curve, poor fit]"
7,COc1ccc2cc3cc(C(=O)Nc4ccccc4N4CCN(C)CC4)oc3nc2c1,"inconclusive [inhibitor, full curve, poor fit]"
8,CCC(C)NC(=O)Cn1c(=O)n(CCCC(=O)NCc2ccc(C)cc2)c(=O)c2ccccc21 (stereo not drawn),inactive
9,CCCc1ccc(-c2ccc(C(=O)O)cc2)nc1,"inconclusive [inhibitor, partial curve, poor fit]"
10,CC(=O)c1ccccc1Oc1nc(CN2CCOCC2)nc2scc(-c3cccs3)c12,"inconclusive [inhibitor, single point]"
11,COc1ccc(C)c2sc(N(CCN(C)C)C(=O)/C=C/c3cccs3)nc12,"inconclusive [inhibitor, partial curve, poor fit]"
12,CCOc1cnn(Cc2ccccc2)c(=O)c1SCc1ccccc1,"inconclusive [inhibitor, partial curve, poor fit]"
13,CC1CCCCN1S(=O)(=O)c1ccc(F)c(C(=O)Nc2ccccc2C(F)(F)F)c1 (stereo not drawn),"inconclusive [inhibitor, single point]"
14,CCCOc1ccc(-c2nc(OC)c3ccccc3n2)cc1,inactive
15,O=C(Cc1c(F)cccc1Cl)N(Cc1ccccc1)c1ccccn1,"inconclusive [inhibitor, single point]"
16,O=C(NCc1cccc(C(F)(F)F)c1)c1cccc(S(=O)(=O)N2CCN(Cc3ccccc3)CC2)c1,"inconclusive [inhibitor, partial curve, poor fit]"
17,Cc1c(C)n(Cc2ccc(F)cc2)c2ccc(C(=O)N3CCN(c4ccc(Cl)cc4)CC3)cc12,"inconclusive [inhibitor, partial curve, poor fit]"
18,O=C(NC1CC2CCC(C1)N2Cc1ccco1)c1ccccc1 (stereo not drawn),inactive
19,Cc1c(CCO)sc[n+]1CC(=O)OCCC12CC3CC(CC(C3)C1)C2,"inconclusive [inhibitor, single point]"
20,O=C(c1ccc(-c2ccc([N+](=O)[O-])cc2)o1)N1CCCCC1,inactive
21,O=C(CN(Cc1ccccc1F)C(=O)c1ccco1)NCc1ccc(F)cc1,"inconclusive [inhibitor, single point]"
